Among all 360,000 compounds or so, about 17,000 (4.7%) were called active. The inconclusive results got no clear call from the source; some entries with a clear call stand among them for comparison. Rule as the data show it: active = activity change below about -50%; inconclusive = mostly about -30% to -49%; inactive = weaker than that.
assay: qHTS for Inhibitors of Inflammasome Signaling: IL-1-beta AlphaLISA Primary Screen; details: THP-1 LPS/ATP IL-1B secretion, 16 h; at 57.5 µM, stronger effect = lower value
Method in brief: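 THP-1 cells pretreated 1 hr with compounds (up to 57.5 uM final), then stimulated with LPS (250 ng/mL final) plus ATP (1.25 mM final); secreted IL-1B measured by AlphaLISA after 16 hr, decreased signal indicating inhibition.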
% is scaled to controls: 0 for no effect and ±100 for the full control effect.

Row | SMILES | activity change
1 | COc1cc(/C=C/C(=O)OCC(=O)NC(=O)NC23CC4CC(CC(C4)C2)C3)ccc1OCC#N | inconclusive: -34.2%
2 | O=C(C1CCC1)N1CCN(c2ccnc3cc(Cl)ccc23)CC1 | inconclusive: -34.9%
3 | CCC1(C)Cc2c(c(=O)n(-c3ccccc3)c3ncnc(N)c23)CO1 (configuration not stated) | inactive: 5.38%
4 | COc1ccc(Br)cc1C(C[N+](=O)[O-])c1c(N)n(C)c(=O)n(C)c1=O (configuration not stated) | active: -83.3%
5 | Cc1ccc(COC(=O)c2nn(-c3ccccc3)nc2N)cc1 | inconclusive: -44%
6 | COC(=O)c1ccsc1NC(=O)c1ccco1 | inconclusive: -39.3%
7 | COc1ccc(CN2CCCC(C(=O)Nc3cccc(-n4cccn4)c3)C2)cc1 (configuration not stated) | inconclusive: -44%
8 | COc1ccc(S(=O)(=O)N(CCN2CCOCC2)Cc2cc(OC)ccc2OC)cc1 | inconclusive: -31.8%
9 | CCCOc1ccc(-c2c(C(=O)N/N=C(\C)c3cccs3)nnn2-c2nonc2N)cc1 | inactive: 46.7%
10 | CC(=O)Nc1ccc(NC(=O)c2csc([C@@H]3O[C@H](CO)[C@H](O)[C@H](O)[C@H]3O)n2)cc1 | inactive: 10.7%
11 | COc1cccc(CN(C(=O)/C=C/c2ccc(Cl)cc2)C2CCS(=O)(=O)C2)c1 (configuration not stated) | active: -57.6%
12 | COc1cc(O)c(C(CCN2CCCCC2)c2ccc3c(c2)OCO3)c(OC)c1 (configuration not stated) | active: -81.1%
13 | O=C(NCc1cccc(Cl)c1)c1ccc2ccccc2n1 | inconclusive: -41.3%
14 | CC(=O)N1CCc2cc(S(=O)(=O)CCC(=O)Nc3cc(C)cc(C)c3)ccc21 | inactive: 71.6%
15 | Cc1cc[n+](CC(=O)c2ccc(NC(=O)c3ccccc3)cc2)c2ccccc12 | inconclusive: -38.2%
16 | CCN(CC)c1ccc(C(=O)NNC(=O)CCl)cc1 | inconclusive: -35.6%
17 | C=CCn1c(O)c(N=O)c2ccccc21 | inconclusive: -49%
18 | CCOc1ccccc1NC(=O)CN(C)S(=O)(=O)c1ccc(OC)c(C)c1 | inconclusive: -36.3%
19 | O=C1C=CC2(C=C1)O[C@H](Cc1ccccc1)[C@@H](Cc1ccccc1)O2 | active: -99.5%
20 | O=C(NN1C(=O)/C(=C/c2cccnc2)SC1=S)C(c1ccccc1)c1ccccc1 | inactive: 4.89%
21 | CCN(CC)CCNC(=O)c1c(C)n(-c2ccccc2)c2cc(Br)c(OC)cc12 | inconclusive: -35.4%
22 | CC1CCN(C(=O)COC(=O)c2ccc3c(c2)C(=O)N(Cc2ccco2)C3=O)CC1 | inactive: 27.4%

Row | SMILES | activity change
23 | CCN1C(C(=O)c2ccccc2)=C(Nc2ccccc2C)c2ccccc2S1(=O)=O | inconclusive: -37.7%
24 | Cc1ccc(NC2CCCN(C(=O)CCC3=NNC(=O)CC3)C2)cc1C (configuration not stated) | inactive: 0%
25 | CCOC(=O)C1(C)CCN1C(=O)c1cc(C)oc1C (configuration not stated) | inactive: -8.72%
26 | COc1ccc(NS(=O)(=O)c2cccc(C(=O)NNC(=O)CNC(=O)c3cccc(C)c3)c2)cc1 | inactive: 14%
27 | CC(=O)c1c(C)oc2ccc(N(C(C)=O)S(=O)(=O)c3ccc(Cl)c([N+](=O)[O-])c3)cc12 | active: -117%
28 | Cc1ccc(S(=O)(=O)c2c(N)n(CCN3CCOCC3)c3nc4ccccc4nc23)cc1C | inconclusive: -35.7%
29 | Cc1nnc(SCC(=O)Nc2ccc(F)cc2)n(N)c1=O | inconclusive: -30.6%
30 | C[C@H](CO)N1C[C@H](C)[C@H](CN(C)Cc2cccc(F)c2)Oc2ncc(Br)cc2C1=O | inconclusive: -33.9%
31 | COC(=O)c1c(NC(=O)Cc2ccccc2)sc2c1CCN(C(C)C)C2 | inconclusive: -36.9%
32 | Cn1c(=O)c2cc(NC(=S)NC3CCCCC3)ccc2n1C/C=C/c1ccccc1 | inconclusive: -33.6%
33 | O=C(N/N=C/c1cc2c(cc1Br)OCO2)c1cccnc1 | inconclusive: -30.6%
34 | CCOc1ccc(NC(=O)c2ccccc2NS(=O)(=O)c2ccc(F)cc2)c([N+](=O)[O-])c1 | inconclusive: -36.3%
35 | O=C(Nc1ccccc1)N1CCN(c2ccc(F)cc2)CC1 | inconclusive: -48.1%
36 | NC(N)=N/N=C/c1ccc(Br)cc1 | inconclusive: -44.5%
37 | O=C1c2cccc(OCc3ccc(F)cc3)c2CCN1Cc1ccccc1 | active: -57.2%
38 | CCOc1ccc(N(CC(=O)NCCc2ccc(C)cc2)S(=O)(=O)c2c(C)noc2C)cc1 | inconclusive: -33.1%
39 | CC(C)COc1ccc(CNC(=S)Nc2ccccc2)cc1Cl | inconclusive: -40.9%
40 | CC(Sc1nnc(CN2CCCC2)n1Cc1ccccc1)C(=O)Nc1ccc(F)cc1Cl (configuration not stated) | inconclusive: -42.2%
41 | CC(C)(C#N)Cc1cc(CC(C)(C)C#N)cc(C(C)(C)C)c1 | inactive: 23.4%
42 | Cn1cnnc1SCC(=O)Nc1ccc(OCc2ccccc2)cc1 | inactive: -4.82%
43 | COc1cccc(C(O)c2cnc(C(C)C)n2C)c1 (configuration not stated) | inactive: -1.15%
44 | Cc1cc(C)cc(NC(=O)CCN2CCCC2)c1 | inactive: -18.1%

Row | SMILES | activity change
45 | Cc1sc(NC(=O)Cc2ccc3c(c2)OCO3)nc1-c1ccc2c(c1)CCN2C(=O)c1ccccc1F | inconclusive: -39.7%
46 | Cn1c(-c2ccccc2)cc(=O)n1-c1ccccc1 | inconclusive: -47.5%
47 | Cc1ccc(NC(=O)CCNC(=O)c2ccc(Cl)cc2)cc1C | inconclusive: -35.4%
48 | CC(NS(=O)(=O)c1ccc(N)cc1)C1CC2CCC1C2 (configuration not stated) | inconclusive: -32.5%
49 | COC(=O)c1cc(C(=O)c2ccc(C(C)(C)C)cc2)c[nH]1 | inconclusive: -31.6%
50 | CCCCN=c1scc(-c2ccc3c(c2)NC(=O)CO3)n1N=C1CCCC1 | inconclusive: -38.8%
51 | Cc1c(-c2ccc(Br)cc2)nc2ccccn12 | active: -80.9%
52 | Cc1ccc(NC(=O)CSc2ccc(Br)cc2)cc1S(=O)(=O)N1CCOCC1 | inconclusive: -40.9%
53 | CC(=O)O[C@]1(C(C)=O)CC[C@H]2[C@@H]3C=CC4=CC(=O)C=C[C@]4(C)[C@H]3CC[C@@]21C | inactive: -25.2%
54 | CCCCC[C@@H](C)N1C[C@@H](COCc2ccccc2)Oc2cc(N3CCC[C@@H]3CO)ccc2S1(=O)=O | inactive: -28%
55 | CCC(=O)N1CCc2cc(S(=O)(=O)NCCC(=O)NCc3ccccc3Cl)ccc21 | inconclusive: -38.1%
56 | C/C=C/C(=O)OCC(=O)Nc1ccccc1Br | inactive: -6.56%
57 | O=C(Nc1ccc(Cl)cc1)Nc1nnc(-c2ccncc2)s1 | inconclusive: -48.6%
58 | Oc1c(Br)cccc1/C=N/Nc1c(F)c(F)c(F)c(F)c1F | inconclusive: -46.9%
59 | N/C(COc1ccc(F)cc1)=N\NC(=O)c1cccnc1Oc1ccccc1 | inconclusive: -44.6%
60 | COC(=O)c1c(C)cc(O)cc1O | inactive: 14.9%
61 | CCOC(=O)NNc1ccc2nonc2c1[N+](=O)[O-] | active: -77.1%
62 | CC1CCN(C2=C(NS(=O)(=O)c3ccc(Br)cc3)C(=O)c3ccccc3C2=O)CC1 | inconclusive: -34.9%
63 | O=C(O)c1ccc(-n2nc(C(F)(F)F)cc2-c2cccs2)cc1 | inactive: 14.6%
64 | O=C1OC(c2ccc(Br)cc2)=N/C1=C\N1CCCCC1 | inconclusive: -37.1%
65 | CN(CCOc1ccc(Br)cc1)CC(O)COc1ccc(C#N)cc1 (configuration not stated) | active: -87.4%
66 | CC(C)OCCCN1CN(S(=O)(=O)c2cccc(Cl)c2)c2nc3ccccc3nc21 | inconclusive: -36.2%

Row | SMILES | activity change
67 | Cc1cccc(N(Cc2ccccc2)C(=O)c2cc(S(=O)(=O)N3CCOCC3)ccc2Cl)c1 | inconclusive: -37.4%
68 | Cn1nc(C(=O)Nc2cccc(S(=O)(=O)N3CCCCC3)c2)c2ccccc2c1=O | active: -53.6%
69 | Cc1ccc(-c2nnc(SC(C)C(=O)NCC3CCCO3)nc2-c2ccc(C)cc2)cc1 (configuration not stated) | inconclusive: -31.7%
70 | COc1ccc(/C=C/C(=O)C2(O)CCCCC2)cc1 | active: -92.4%
71 | COC(=O)c1ccc2[nH]c(C)c(CN3CCCC3)c(=O)c2c1 | inactive: 1.66%
72 | COc1cc2c(cc1NC(=O)/C=C/c1ccccc1)oc1ccccc12 | inconclusive: -42%
73 | CC(=O)N1CCC(C(=O)OCc2ccccc2F)(c2ccccc2)CC1 | inactive: 9.39%
74 | CC(=O)[C@H]1CC[C@H]2[C@@H]3C[C@H](C)C4=CC(=O)CC[C@]4(C)[C@H]3[C@@H](O)C[C@]12C | inconclusive: -48.6%
75 | Cc1ccc(COc2ccc(CNCCCN3CCCCCC3=O)cc2)cc1 | active: -63.8%
76 | Clc1ccc(-c2c[n+](Cc3cccc(Cl)c3)c3n2CCC3)cc1 | active: -74.2%
77 | O=C(N/N=C/c1cc2c(cc1Br)OCO2)c1cc2ccccc2o1 | inconclusive: -34.1%
78 | COC(=O)c1ccc(CC(=O)c2nc3ccccc3s2)cc1 | inactive: 36.7%
79 | Cc1cccc(C2c3[nH]c4ccccc4c3CCN2Cc2cccn2-c2ncccn2)c1 (configuration not stated) | active: -87.2%
80 | OCC1(Cc2ccccc2)CCCN(Cc2ccc(-c3ccco3)cc2)C1 (configuration not stated) | active: -84%
81 | Cc1cccc(N(C(=O)c2sc(C)nc2C)C(C(=O)NCc2ccco2)c2ccccc2)c1 (configuration not stated) | inconclusive: -31.4%
82 | COc1ccc(Cn2nnnc2C(C(C)C)N2CCc3ccccc32)cc1 (configuration not stated) | inconclusive: -36.4%
83 | CC(=O)c1ccc(NC(=S)N(C)C2CCN(C)CC2)cc1 | inconclusive: -31.4%
84 | CN(C(=O)COC(=O)/C=C/c1cn(-c2ccccc2)nc1-c1ccc2c(c1)OCCO2)C1CCS(=O)(=O)C1 (configuration not stated) | inconclusive: -36.7%
85 | COCOc1cccc(CN2CCC2(C)C(=O)Nc2ccc3c(c2)OCO3)c1 (configuration not stated) | inactive: -11.2%
86 | Cc1c(NC(=O)CSc2cccc3cccnc23)c(=O)n(-c2ccccc2)n1C | active: -96.5%
87 | CCOc1ccc(NC(=O)CN(C)C(=O)c2cc(-c3cccs3)nn2-c2ccccc2)cc1OCC | inactive: -0.405%

From PubChem BioAssay AID743279 (National Center for Advancing Translational Sciences (NCATS), 2014)
